# Experimental data published in PubChem BioAssay AID1460 (National Center for Advancing Translational Sciences (NCATS), 2008).
# The whole screen tested about 270,000 compounds, of which about 5,800 (2.1%) were called active. Inconclusive results, whose numbers are uncertain, are shown with a selection of clear calls. Calls come from the whole dose curve; as a rule, active = well fitted inhibition curve with a large enough effect; inconclusive = small, poorly fitted or top-dose-only effect; inactive = flat fitted curve, though single readings scatter. Where the call is inconclusive, the potency comes from a doubtful curve fit.
# Biological target: Microtubule-associated protein tau (Homo sapiens) (UniProt P10636)
# Experiment: qHTS for Inhibitors of Tau Fibril Formation, Thioflavin T Binding; note: nearly all actives have a fitted effect of over 55% in size
# Conditions: recombinant tau K18 P301L, heparin-induced fibrillization, ThT fluorescence; series mostly up to 57.4 µM
# Summary of the method: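 Using a mix of unlabeled (15 uM) and Alexa 594-labeled (0.24 uM) tau K18 P301L, heparin-triggered fibrillization over 6 hr at 37 C was scored by ThT fluorescence.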
# % is set by controls: 0 for no effect and ±100 for the full control effect; potency is the fitted concentration of half-maximal effect; tags give direction and shape of the fitted curve.
# Sequence of UniProt P10636 (P10636 whole entry, looked up): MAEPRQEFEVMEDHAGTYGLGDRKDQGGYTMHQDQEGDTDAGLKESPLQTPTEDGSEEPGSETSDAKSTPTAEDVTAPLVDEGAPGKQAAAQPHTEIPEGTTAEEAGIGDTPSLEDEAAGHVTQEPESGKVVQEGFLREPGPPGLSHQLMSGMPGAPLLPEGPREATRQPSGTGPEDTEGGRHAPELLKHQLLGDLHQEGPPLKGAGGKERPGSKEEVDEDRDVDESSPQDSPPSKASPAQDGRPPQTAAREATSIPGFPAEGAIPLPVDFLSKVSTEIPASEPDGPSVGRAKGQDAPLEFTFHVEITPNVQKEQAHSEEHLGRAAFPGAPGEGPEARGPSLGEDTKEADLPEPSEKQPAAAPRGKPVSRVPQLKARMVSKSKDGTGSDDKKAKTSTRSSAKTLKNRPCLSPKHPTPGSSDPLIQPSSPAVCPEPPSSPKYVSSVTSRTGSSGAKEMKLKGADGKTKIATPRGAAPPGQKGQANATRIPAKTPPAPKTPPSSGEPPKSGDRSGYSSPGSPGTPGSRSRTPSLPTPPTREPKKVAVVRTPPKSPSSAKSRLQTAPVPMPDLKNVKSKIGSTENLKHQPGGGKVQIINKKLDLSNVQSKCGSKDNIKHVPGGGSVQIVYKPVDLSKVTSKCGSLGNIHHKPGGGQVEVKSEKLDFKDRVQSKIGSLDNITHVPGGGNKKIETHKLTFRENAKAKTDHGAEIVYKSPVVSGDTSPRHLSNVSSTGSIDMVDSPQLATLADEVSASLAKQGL
SMILES,Potency,"activity, negative = inhibition"
C=CCn1c(C(C)C)nc2ccccc21,inactive,
CCOC(=O)c1cc2n(c1C)-c1ccccc1C2=O,"inconclusive: 3.55 µM [inhibitor, full curve]",
O=C(Nc1cccc([N+](=O)[O-])c1)c1ccc2c(c1)OCO2,"inconclusive: 5.01 µM [inhibitor, partial curve]",
Cc1ccc(C)n1NC(=O)c1ccccc1O,"inconclusive: 12.6 µM [inhibitor, partial curve]",
CCOc1ccc2[nH]c(SCC(=O)OC)c([N+](=O)[O-])c2c1,"inconclusive: 1.58 µM [inhibitor, full curve]",
Cc1ccc(S(=O)(=O)NCC(=O)NCc2ccncc2)cc1,inactive,
CCOc1ccc(C2=Nn3c(nnc3-c3ccccc3OC)SC2)cc1,inactive,
COc1cccc(-c2nc(SCC(=O)NCC3CCCO3)c(-c3ccc(Cl)cc3)[nH]2)c1 (centres undefined),"inconclusive: 31.6 µM [inhibitor, single point]",
CCOC(=O)C1(Cc2ccccc2C)CCCN(Cc2cc(OC)c(O)c(OC)c2)C1 (centres undefined),"inconclusive: 10 µM [inhibitor, partial curve, poor fit]",
CCOc1ccc(-n2c(C)cc(/C=N/Nc3nc(C)cc(=O)[nH]3)c2C)cc1,"inconclusive: 12.6 µM [inhibitor, partial curve]",
CC(C)C(=O)N1CCN(c2cc(N3CCN(C)CC3)c(F)cc2[N+](=O)[O-])CC1,"inconclusive: 22.4 µM [inhibitor, single point]",
O=S(=O)(c1cccc(-c2n[nH]c(=S)n2Cc2ccccc2)c1)N1CCOCC1,inactive,
COC(=O)N1C2CC(=O)O[C@@H]3c4cc5c(cc4[C@]1(C)[C@@]3(Br)c1ccccc12)OCO5,,inactive: 9.31% [at 11.5 µM]
O=C(Nc1ccccc1N1CCN(C(=O)c2ccc(Cl)cc2)CC1)c1cc(Br)ccc1Cl,"inconclusive: 25.1 µM [inhibitor, partial curve]",
COc1ccc2nc3ccccc3nc2c1N,active: 10 µM,
COc1ccc(Cl)cc1C(=O)Nc1ccc(NC(=O)c2ccco2)cc1,"inconclusive: 5.62 µM [inhibitor, partial curve]",
O=C(O)/C=C/C(=O)Nc1ccc(Oc2ncnc3cc(Cl)ccc23)nc1,inactive,
COc1ccccc1N=Nc1nc(-c2ccccc2)c(-c2ccccc2)[nH]1,active: 3.55 µM,
Cn1c(=O)c(-c2cc(Br)ccc2N)nc2ccccc21,"inconclusive: 17.8 µM [inhibitor, partial curve]",
CCn1c(=N)n(CC(=O)c2ccc(OC)c(OC)c2)c2ccccc21,"inconclusive: 17.8 µM [inhibitor, partial curve]",
CCO[C@@H]1OC(C(=O)N2CCCCCCC2)=C[C@H](C2CCCCC2)[C@H]1CCCO,inactive,
CC[n+]1ccccc1/C=C/c1ccc(N(C)C)cc1,active: 14.1 µM,
CCOc1ccc(S(=O)(=O)NC(C)C)cc1C(N)=O,inactive,
CC(=O)c1cccc(NC(=O)CCCSc2nc(-c3ccco3)cc(C(F)(F)F)n2)c1,inactive,
c1cnc2c(c1)ccc1cccnc12,active: 28.2 µM,

SMILES,Potency,"activity, negative = inhibition"
Cc1nn2c(-c3ccco3)ccnc2c1-c1ccc(Cl)cc1,"inconclusive: 0.501 µM [inhibitor, full curve]",
CCOc1cccc(OCCOc2ccccc2[N+](=O)[O-])c1,"inconclusive: 0.0708 µM [inhibitor, full curve, poor fit]",
Oc1c(/C=N/Nc2cccc3cccnc23)ccc2ccccc12,"inconclusive: 7.94 µM [inhibitor, partial curve]",
Cc1ccc(C(=O)Nc2ccc3oc(-c4cc(Br)ccc4Cl)nc3c2)cc1,"inconclusive: 0.501 µM [inhibitor, full curve]",
CCC(=O)N1CCCc2cc(S(=O)(=O)N3CCC(C(=O)Nc4cccc(Cl)c4)CC3)ccc21,inactive,
COc1ccc(S(=O)(=O)NC(CC(=O)NCc2ccco2)C(C)C)cc1 (centres undefined),inactive,
COc1cc(OC)c(N(C)C(=O)CSc2c3c(nc4ccc(Cl)cc24)CCCC3)cc1Cl,inactive,
CCCCCCc1ccc(-c2ncc(N)cn2)cc1,inactive,
O=C(CSc1nc2ccsc2c(=O)n1Cc1ccccc1F)NCc1ccccc1Cl,inactive,
Cc1noc(NS(=O)(=O)c2ccc(NC(=O)Nc3ccc(Cl)c(Cl)c3)cc2)c1C,"inconclusive: 31.6 µM [inhibitor, single point]",
COc1ccc(N2CCN(C(=O)Cn3c(-c4cccs4)cc4ccccc43)CC2)cc1,"inconclusive: 12.6 µM [inhibitor, partial curve]",
Clc1cccc(-n2ncc3c(Nc4ccc5c(c4)OCCO5)ncnc32)c1,"inconclusive: 1.58 µM [inhibitor, partial curve, poor fit]",
CC(=O)c1ccccc1NC(=O)COC(=O)CCCN1C(=O)c2cccc3cccc(c23)C1=O,"inconclusive: 10 µM [inhibitor, partial curve, poor fit]",
Cc1ccc(OCc2nnc(SCC(=O)c3ccccc3)n2Cc2ccco2)cc1,"inconclusive: 39.8 µM [inhibitor, single point]",
O=C(Nc1nc2ccc([N+](=O)[O-])cc2s1)c1ccc(S(=O)(=O)N2CCCc3ccccc32)cc1,"inconclusive: 4.47 µM [inhibitor, full curve]",
Cc1cc2n(n1)C(c1c[nH]c3ccccc13)Nc1ccccc1-2 (centres undefined),"inconclusive: 39.8 µM [inhibitor, partial curve, poor fit]",
O=C(N/N=C/c1ccc(O)c2ncccc12)c1cccc(Br)c1,active: 6.31 µM,
CCOC(=O)c1cc(OC(=O)c2ccccc2OC)n(-c2ccccc2)n1,"inconclusive: 17.8 µM [inhibitor, partial curve]",
O=C(Cn1c(=O)n(-c2ccccc2)c(=O)c2ccc(C(=O)NCc3ccc4c(c3)OCO4)cc21)Nc1ccc(F)c(Cl)c1,inactive,
O=C(CSc1cccc2cccc(Cl)c12)OCC(=O)N1CCN(C(=O)c2ccco2)CC1,"inconclusive: 28.2 µM [inhibitor, partial curve]",
COC(=O)C1(CCSC)NC(c2ccccc2F)C2C(=O)N(c3ccc4c(c3)OCCO4)C(=O)C21 (centres undefined),inactive,
CCOC(=O)c1cc(C)n(Cc2cccc(OC)c2OC)c1C,"inconclusive: 31.6 µM [inhibitor, single point]",
CC(C)c1cnc2c(c1SCC(=O)Nc1ccc(C(N)=O)cc1)c(=O)n(C)c(=O)n2C,inactive,
CCCC(=O)n1nc(-c2ccc(Cl)cc2)nc1SC,"inconclusive: 28.2 µM [inhibitor, single point]",
CCOC(=O)C1CCN(CC(O)COc2ccc(C(C)(C)CC)cc2)CC1 (centres undefined),inactive,

SMILES,Potency,"activity, negative = inhibition"
CCc1cccc2c(-c3csc(=NC)n3C)c[nH]c12,inactive,
CCN(C(=O)c1cn(C)c(=O)c2ccccc12)c1cccc(C)c1,"inconclusive: 0.0251 µM [inhibitor, full curve, poor fit]",
CCCCCCCCc1nc(=S)[nH][nH]1,inactive,
CCC(CO)N=CC1=C(O)C(C(=O)c2ccccc2)CCC1=O (centres undefined),inactive,
CCOc1ccc(CNC(=O)CCS(=O)(=O)Cc2cccc(Cl)c2)cc1OC,inactive,
CCN(CC)Cc1c(O)c(Cl)cc2c3c(c(=O)oc12)CCCC3,"inconclusive: 20 µM [inhibitor, partial curve]",
Cc1ccn2cc(C(=O)Nc3ccc4c(c3)OCCO4)nc2c1,"inconclusive: 31.6 µM [inhibitor, partial curve]",
COc1cc(OC)c(OC)cc1/C=N/n1c(-c2n[nH]c3c2CCC3)n[nH]c1=S,"inconclusive: 44.7 µM [inhibitor, single point]",
N#Cc1ccccc1NC(=O)CSc1nnc(-c2ccccc2O)n1-c1ccccc1,inactive,
Oc1ccc(CN2CCCCC2)nc1-c1ccccc1,inactive,
COC(=O)[C@H](Cc1ccccc1)NC(=O)O[C@@H]1C(=O)c2ccc(OC)cc2O[C@H]1c1cccc(C(F)(F)F)c1,inactive,
COc1ccccc1CNC(=O)CCS(=O)(=O)c1cccs1,inactive,
O=C(c1ccccc1Br)N(Cc1ccccc1F)C1CCS(=O)(=O)C1 (centres undefined),"inconclusive: 39.8 µM [inhibitor, single point]",
CO/N=C1\CCn2c1c(C)c1ccccc12,"inconclusive: 14.1 µM [inhibitor, partial curve]",
COc1ccc(C(=O)c2no[n+]([O-])c2C(=O)c2ccc(OC)cc2)cc1,active: 17.8 µM,
COc1ccc(N2CCN(C(=O)c3cccnc3SCc3cccc(Br)c3)CC2)cc1,"inconclusive: 31.6 µM [inhibitor, single point]",
CC1=C(C)NC(=S)SC1,"inconclusive: 31.6 µM [inhibitor, single point]",
NC(=O)C[C@H]1NC(=O)[C@H](CCC(=O)O)NC(=O)c2cc([N+](=O)[O-])cc(I)c2NCCC[C@@H](C(N)=O)NC1=O,"inconclusive: 1.58 µM [inhibitor, full curve, poor fit]",
Cc1ccc2c(c1)-c1onc(C(=O)N(C)c3ccc(F)cc3)c1CO2,inactive,
c1ccn(-c2ccc(N3CCOCC3)cc2)c1,"inconclusive: 14.1 µM [inhibitor, partial curve]",
CCC(=O)NC(NC(=S)Nc1ccc(S(N)(=O)=O)cc1)C(Cl)(Cl)Cl (centres undefined),inactive,
CCOC(=O)C1=C(O)/C(=C\c2ccc(CNS(=O)(=O)c3ccc(Br)cc3)o2)N=C1C,"inconclusive: 17.8 µM [inhibitor, partial curve]",
O=C(CCNc1cc(Cl)cc(Cl)c1)c1ccco1,inactive,
COc1ccc(C(=O)NC(=S)Nc2ccc(S(=O)(=O)Nc3cc(C)on3)cc2)cc1OC,inactive,
